{"source": "PubChem BioAssay AID1461", "about": "(National Center for Advancing Translational Sciences (NCATS), 2008)", "note": "Several values for one entry are separate records, joined by “and”; a condition that tells them apart may be missing. Equal entries are not always repeated. In all, about 220,000 compounds went through this assay and about 2,300 (1%) were called active. The inconclusive results got no clear call from the source; some entries with a clear call stand among them for comparison. Calls come from the whole dose curve; as a rule, active = well fitted inhibition curve with a large enough effect; inconclusive = small, poorly fitted or top-dose-only effect, or effect the other way; inactive = no such curve, though single readings can be large or run the other way. Where the call is inconclusive, the potency comes from a doubtful curve fit. % is set by controls: 0 for no effect and ±100 for the full control effect; potency is the fitted concentration of half-maximal effect; tags give direction and shape of the fitted curve.", "data": [{"target": "Neuropeptide S receptor (Homo sapiens) (UniProt Q6W5P4)", "sequence (Q6W5P4 whole entry, looked up)": "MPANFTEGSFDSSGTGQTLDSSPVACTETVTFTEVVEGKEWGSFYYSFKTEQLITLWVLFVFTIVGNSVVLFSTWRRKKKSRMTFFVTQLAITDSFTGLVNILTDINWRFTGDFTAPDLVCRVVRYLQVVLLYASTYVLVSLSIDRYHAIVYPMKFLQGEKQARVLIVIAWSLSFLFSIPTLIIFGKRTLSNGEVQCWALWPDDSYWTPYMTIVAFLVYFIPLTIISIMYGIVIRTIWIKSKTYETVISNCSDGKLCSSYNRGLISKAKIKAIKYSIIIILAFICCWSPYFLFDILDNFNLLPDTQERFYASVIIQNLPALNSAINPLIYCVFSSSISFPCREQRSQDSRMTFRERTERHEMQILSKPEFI", "experiment": "qHTS Assay for Antagonists of the Neuropeptide S Receptor: cAMP Signal Transduction; note: nearly all actives have a fitted effect of over 50% in size", "details": "CHO-NPSR cells, cAMP TR-FRET, antagonist mode; activity change, negative = inhibition: at 38.3 µM (top of the series) unless noted", "values": [{"smiles": "Cc1ccc2nc3sc(C(=O)N4CCCc5ccccc54)c(N)c3cc2c1", "activity change, negative = inhibition": "inactive: -20% [at 46.1 µM]"}, {"smiles": "CC(=O)O[C@]1(C(C)=O)CC[C@H]2[C@@H]3C=C(Cl)C4=CC(=O)CC[C@]4(C)[C@H]3CC[C@@]21C", "Potency": "active: 5.01 µM"}, {"smiles": "COc1ccc(C(=O)C(C)N(C(=O)c2ccc(Cl)cc2Cl)N2C(=O)C3C4C=CC(C4)C3C2=O)cc1", "note": "(stereo not given)", "Potency": "inconclusive: 12.6 µM [inhibitor, single point]"}, {"smiles": "O=C(O)c1[nH]c2ccccc2c1CC(=O)N1CCOCC1", "activity change, negative = inhibition": "inactive: 1.28% [at 46.1 µM]"}, {"smiles": "COc1ccc(C2=CSC3=C(C(=O)c4cccc(S(=O)(=O)N(C)C)c4)CCN23)cc1", "activity change, negative = inhibition": "inactive: -11.4% [at 46.1 µM]"}, {"smiles": "O=C(/C=C/c1ccco1)NC(=S)Nc1ccc(O)c(-c2nc3ccccc3s2)c1", "Potency": "active: 1 µM"}, {"smiles": "Cc1ccc(OCC(=O)Nc2ccccc2N2CCOCC2)c(C)c1", "Potency": "inconclusive: 15.8 µM [inhibitor, single point]"}, {"smiles": "CCCNC(=O)NS(=O)(=O)c1ccc(Cl)cc1", "Potency": "inconclusive: 5.01 µM [inhibitor, single point]"}, {"smiles": "O=C(c1ccccc1)c1c2c(cc3sc4ccccc4[n+]13)-c1cccc3cccc-2c13", "Potency": "active: 10 µM"}, {"smiles": "Cc1cccc(S(=O)(=O)c2c(N)n(/N=C/c3cccnc3)c3nc4ccccc4nc23)c1", "Potency": "inconclusive: 3.98 µM [inhibitor, single point]"}, {"smiles": "CC(=O)c1ccc(OCC(O)CN2CCN(c3ccccn3)CC2)cc1", "note": "(stereo not given)", "Potency": "inconclusive: 3.98 µM [inhibitor, single point]"}, {"smiles": "O=C(Nc1cnc2sccn2c1=O)c1ccc(Cl)cc1Cl", "Potency": "inconclusive: 25.1 µM [inhibitor, single point]"}, {"smiles": "CC1(C)Cc2c(c(-c3ccco3)nc3n[nH]c(N)c23)CO1", "Potency": "inconclusive: 25.1 µM [inhibitor, single point]"}, {"smiles": "CCOC(=O)/C=C(\\C)Sc1cc(O)c2ccccc2c1O", "Potency": "inconclusive: 12.6 µM [activator, single point]"}, {"smiles": "O=C(CN1CCc2ccccc2C1)Nc1ccccc1N1CCCCCC1", "Potency": "inconclusive: 10 µM [inhibitor, partial curve]"}, {"smiles": "Cc1ccc(C)c(NC(=O)CN(C)S(=O)(=O)c2ccc(F)cc2)c1", "activity change, negative = inhibition": "inactive: -6.29% [at 46.1 µM]"}, {"smiles": "CC1CN(S(=O)(=O)c2cccc(C(=O)OCc3cc(=O)oc4cc(O)ccc34)c2)CC(C)O1", "note": "(stereo not given)", "Potency": "inconclusive: 25.1 µM [inhibitor, single point]"}, {"smiles": "Cc1cccc(OCc2nnc(SCc3cc(=O)[nH]c4ccccc34)n2-c2ccccc2)c1", "Potency": "inconclusive: 25.1 µM [inhibitor, single point]"}, {"smiles": "CN(C)S(=O)(=O)n1ccnc1", "activity change, negative = inhibition": "inactive: -0.576% [at 46.1 µM]"}, {"smiles": "CSc1cc(-c2ccc(Cl)cc2)c(C(=O)NC(C)C)s1", "Potency": "inconclusive: 12.6 µM [inhibitor, single point]"}, {"smiles": "CCOC(=O)CSc1nc(C2CC2)cc(-c2ccc(Cl)cc2)c1C#N", "Potency": "inconclusive: 12.6 µM [inhibitor, single point]"}, {"smiles": "CC1CC(C)CN(S(=O)(=O)c2ccc3c(c2)n(C)c(=O)c(=O)n3C)C1", "note": "(stereo not given)", "Potency": "inconclusive: 10 µM [activator, partial curve]"}, {"smiles": "O=C(Nc1cccc(C(F)(F)F)c1)c1cccnc1N1CCN(c2ccccc2)CC1", "Potency": "inconclusive: 12.6 µM [inhibitor, partial curve]"}, {"smiles": "CCc1ccc(N2CC(C(=O)Nc3nnc(CC)s3)CC2=O)cc1", "note": "(stereo not given)", "Potency": "inconclusive: 5.01 µM [inhibitor, single point]"}, {"smiles": "Cc1cccc(N(CC(O)CON=C2c3ccccc3-c3ccccc32)S(C)(=O)=O)c1", "note": "(stereo not given)", "Potency": "inconclusive: 25.1 µM [inhibitor, single point]"}, {"smiles": "CCOc1ccc(C(=O)/C=C/c2cn(CN3CCN(C)CC3)c3ccccc23)cc1", "activity change, negative = inhibition": "inactive: -25.6% [at 46.1 µM]"}, {"smiles": "CCC(Cc1ccccc1)NC(=O)CSc1ccsc1[N+](=O)[O-]", "note": "(stereo not given)", "activity change, negative = inhibition": "inactive: -10.3% [at 46.1 µM]"}, {"smiles": "Cn1nc(OCC(N)=O)ccc1=O", "activity change, negative = inhibition": "inactive: 0.416% [at 46.1 µM]"}, {"smiles": "CCCCCCn1c(-c2ccco2)nc2oc3cc(OC)ccc3c(=O)c2c1=O", "Potency": "inconclusive: 10 µM [inhibitor, single point]"}, {"smiles": "N#C/C(=C(/O)COC(=O)CCc1ccc(S(=O)(=O)N2CCOCC2)cc1)c1nc2ccccc2[nH]1", "Potency": "inconclusive: 7.94 µM [inhibitor, partial curve, poor fit]"}, {"smiles": "COc1ccc(C)cc1NC(=O)Cn1cnc2sc(C)c(S(=O)(=O)N3CCOCC3)c2c1=O", "activity change, negative = inhibition": "inactive: 4.03% [at 46.1 µM]"}, {"smiles": "CC1=C(C(=O)OC2CCCCCCC2)C(c2cc3c(cc2Br)OCO3)CC(=O)N1", "note": "(stereo not given)", "Potency": "inconclusive: 12.6 µM [inhibitor, single point]"}, {"smiles": "O=C(c1cccc(C(=O)N2CCc3ccccc32)n1)N1CCc2ccccc21", "Potency": "inconclusive: 2.51 µM [inhibitor, partial curve]"}, {"smiles": "CN(C)S(=O)(=O)c1ccc2c(c1)/C(=C/c1cc3c([nH]1)CCCC3)C(=O)N2", "Potency": "inconclusive: 0.158 µM [inhibitor, full curve, poor fit]"}, {"smiles": "Cc1ccc(-n2c(=S)[nH]c3nc4c(cc3c2=O)COC(C)(C)C4)cc1", "Potency": "inconclusive: 12.6 µM [inhibitor, single point]"}, {"smiles": "Clc1cccc(Cl)c1NC1=NCCN1", "Potency": "inconclusive: 15.8 µM [inhibitor, single point]"}, {"smiles": "CC(C)CN(C)Cc1c(C(=O)N2CCc3ccccc3C2)nc2ccc(Cl)cn12", "Potency": "inconclusive: 12.6 µM [activator, partial curve]"}, {"smiles": "CC(=O)N1CCN(c2cc3c(cc2F)c(=O)c(C(=O)O)cn3C2CC2)CC1", "activity change, negative = inhibition": "inactive: 2.28%"}, {"smiles": "Cc1ccc(Cn2c(NCCc3ccccc3)nc3c2c(=O)n(C)c(=O)n3C)cc1", "activity change, negative = inhibition": "inactive: -5.84% [at 46.1 µM]"}, {"smiles": "CCC(c1nnnn1Cc1cccs1)N1CCN(C2CCCC2)CC1", "note": "(stereo not given)", "Potency": "inconclusive: 25.1 µM [inhibitor, single point]"}, {"smiles": "CC(C)(C)NC(=O)C(c1ccc(O)cc1)N(C(=O)CCC(=O)Nc1nccs1)c1cccc(F)c1", "note": "(stereo not given)", "activity change, negative = inhibition": "inactive: 0.421%"}, {"smiles": "Cc1cc(Cl)c(OCCOCCN2CCCCC2)c(Br)c1", "activity change, negative = inhibition": "inactive: 7.72%"}, {"smiles": "CC(C)(C)[C@]1(O)CCN2CC3c4ccccc4CCc4cccc(c43)[C@@H]2C1", "note": "(stereo not given in full)", "Potency": "inconclusive: 10 µM [inhibitor, partial curve] and inconclusive: 12.6 µM [inhibitor, partial curve]"}, {"smiles": "Cc1cc(C)c(C2C3=C(Nc4c2c(C)nn4-c2ccccn2)c2ccccc2C3=O)c(C)c1", "note": "(stereo not given)", "Potency": "active: 10 µM"}, {"smiles": "Cc1c(Cl)ccc2c1NC(=O)[C@]21N[C@@H](Cc2ccccc2)[C@H]2C(=O)N(c3ccc(F)cc3)C(=O)[C@H]21", "Potency": "inconclusive: 20 µM [inhibitor, partial curve]"}, {"smiles": "CN1CCN(C(=O)c2ccc(CS(=O)(=O)c3c(Cl)cccc3Cl)o2)CC1", "activity change, negative = inhibition": "inactive: 7.27% [at 46.1 µM]"}, {"smiles": "CCCCCOc1ccc(CSC(=N)N)cc1[N+](=O)[O-]", "Potency": "inconclusive: 5.01 µM [activator, single point]"}, {"smiles": "O=C(NC1CCS(=O)(=O)C1)c1cn(-c2ccccc2)nc1-c1ccccc1", "note": "(stereo not given)", "activity change, negative = inhibition": "inactive: -5.69% [at 46.1 µM]"}, {"smiles": "CCOC(=O)c1cc(-c2ccccc2)nc2c1c(C)nn2-c1ccccn1", "Potency": "inconclusive: 10 µM [inhibitor, single point]"}, {"smiles": "CC(C)Oc1ccc(C(CC(=O)NCc2ccco2)c2ccccc2)cc1", "note": "(stereo not given)", "Potency": "inconclusive: 12.6 µM [inhibitor, partial curve, poor fit]"}, {"smiles": "O=[N+]([O-])c1cc([N+](=O)[O-])c2c(=Nc3ccccc3)n(-c3ccccc3)n(O)c2c1", "Potency": "inconclusive: 10 µM [inhibitor, single point]"}, {"smiles": "Cc1ccc(OCC(=O)N/N=C/c2cc([N+](=O)[O-])ccc2N2CCCCC2)cc1", "activity change, negative = inhibition": "inactive: -47.3%"}, {"smiles": "CC1=C(C#N)C(c2cccnc2)C2=C(CC(c3ccc(Cl)cc3)CC2=O)N1", "note": "(stereo not given)", "Potency": "inconclusive: 25.1 µM [inhibitor, single point]"}, {"smiles": "O=C(CSc1nnc(-c2c[nH]c3ccccc23)o1)N(Cc1ccccc1)c1ccc(F)cc1", "Potency": "active: 7.94 µM"}, {"smiles": "COc1ccc(N2C(=O)CC(Nc3ccc(N4CCOCC4)cc3)C2=O)c(OC)c1", "note": "(stereo not given)", "activity change, negative = inhibition": "inactive: -14.6% [at 46.1 µM]"}, {"smiles": "Cc1cc(C)c(C#N)c(SCC(=O)CC(=O)OC(C)C)n1", "activity change, negative = inhibition": "inactive: -9.43% [at 46.1 µM]"}, {"smiles": "N#Cc1c(N)n(CCOC(=O)c2cccc([N+](=O)[O-])c2)c2nc3ccccc3nc12", "Potency": "inconclusive: 12.6 µM [inhibitor, partial curve]"}, {"smiles": "COc1ccc(Cl)cc1NC(=S)NNC(=O)c1cccs1", "activity change, negative = inhibition": "inactive: 26.4%"}, {"smiles": "c1ccc(-c2c[nH]c3[n+]2CCCCC3)cc1", "activity change, negative = inhibition": "inactive: -2.93% [at 46.1 µM]"}, {"smiles": "Cc1cc(S(=O)(=O)Nc2ccc(F)cc2)c(C)s1", "Potency": "inconclusive: 12.6 µM [inhibitor, single point]"}, {"smiles": "COc1ccc(OC)c2c1sc(=NC(=O)C(C)(C)C)n2C", "Potency": "inconclusive: 25.1 µM [activator, single point]"}, {"smiles": "COc1ccc(N(C)C(=O)c2ccc3nc(-c4ccccc4)c(-c4ccccc4)nc3c2)cc1", "Potency": "inconclusive: 10 µM [inhibitor, single point]"}, {"smiles": "O=C1NC(=O)c2cc(Nc3ccccc3)c(Nc3ccccc3)cc21", "Potency": "active: 12.6 µM"}, {"smiles": "CC(/C=N/n1c(-c2ccco2)n[nH]c1=S)=C\\c1ccco1", "activity change, negative = inhibition": "inactive: -13.8%"}, {"smiles": "Cc1nn(-c2ccccc2)c(N)c1C(O)(C(F)(F)F)C(F)(F)F", "activity change, negative = inhibition": "inactive: 6.88%"}, {"smiles": "COc1cc2c(cc1OC)C1(Nc3c-2c(Cc2ccccc2)nn3-c2ccccc2)C(=O)Nc2ccccc21", "note": "(stereo not given)", "activity change, negative = inhibition": "inactive: -12.7% [at 46.1 µM]"}, {"smiles": "c1ccc(CN2CCN(c3nc(NCc4ccco4)c4ccccc4n3)CC2)cc1", "Potency": "active: 10 µM"}, {"smiles": "COc1ccc(-n2c(SCC(=O)NCc3ccco3)nc3c([nH]c4ccccc43)c2=O)cc1", "activity change, negative = inhibition": "inactive: 4.53% [at 46.1 µM]"}, {"smiles": "CCOc1cc(S(=O)(=O)Nc2ccccc2CC)ccc1Cl", "Potency": "inconclusive: 25.1 µM [inhibitor, single point]"}, {"smiles": "Cc1ccccc1-n1cnc2c(sc3nc(N4CCOCC4)c4c(c32)CCCC4)c1=O", "Potency": "inconclusive: 5.01 µM [activator, partial curve]"}]}]}
